From US11365205B2 (Aurigene Discovery Technologies Limited, priority 2018, dated 2022) come the findings set out here.

What is called pIC50 is the negative decadic logarithm of the IC50, by convention in mol/L.

pIC50: −log10 of the molar value.

For the experiment, the target named is PRMT5/MEP50 Complex (Homo sapiens (Human), UniProt O14744). Kind of experiment: PRMT5 inhibition based on TR-FRET assay. The experiment is classed as biochemical. As to conditions: 32 nM PRMT5:MEP50, 50 nM Histone-H4 peptide, 1 μM SAM. The source says: PRMT5 Inhibition Based on TR-FRET Assay:
Protein arginine methyltransferase 5 (PRMT5) is a type II arginine methyltransferase that catalyze mono- and symmetric demethylation on arginine residues of histone or non-histone proteins in presence of S-adenosylmethionine (AdoMet or SAM) a cofactor responsible for donating the methyl group. PRMT5 is reported to be overexpressed in several human cancers. To identify compounds that inhibit the PRMT5 and decrease its activity, a TR-FRET based assay has been established. Time-resolved fluorescence resonance energy transfer (TR-FRET) HTS assays are homogeneous proximity assays where the interaction of two dye-labeled binding partners is detected by the energy transfer between a donor and an acceptor dye and the subsequent light emission by the acceptor dye. PRMT5 catalyzes Histone H4 peptide which is biotin tagged to the Lysine amino acid at carboxyl end, in presence of S-adenosyl-1-methionine (SAM) to methylate the peptide. The antibody specific to mono methylated H4 peptide (H4R3) with Ig conjugate binds to the methylated peptide, indirectly binding to the Europium lanthanide. […]
The compound dilutions were prepared as 7.5% DMSO stock solutions in assay buffer. […] The plates were then read on Victor-3 with Excitation at 340 nm and Emissions collected at 615 and 665 nm in TR-FRET protocol. […]
A general note: TR-FRET usually uses a lanthanide donor and a delayed reading to cut background.

Sequence of UniProt O14744 (O14744 whole entry): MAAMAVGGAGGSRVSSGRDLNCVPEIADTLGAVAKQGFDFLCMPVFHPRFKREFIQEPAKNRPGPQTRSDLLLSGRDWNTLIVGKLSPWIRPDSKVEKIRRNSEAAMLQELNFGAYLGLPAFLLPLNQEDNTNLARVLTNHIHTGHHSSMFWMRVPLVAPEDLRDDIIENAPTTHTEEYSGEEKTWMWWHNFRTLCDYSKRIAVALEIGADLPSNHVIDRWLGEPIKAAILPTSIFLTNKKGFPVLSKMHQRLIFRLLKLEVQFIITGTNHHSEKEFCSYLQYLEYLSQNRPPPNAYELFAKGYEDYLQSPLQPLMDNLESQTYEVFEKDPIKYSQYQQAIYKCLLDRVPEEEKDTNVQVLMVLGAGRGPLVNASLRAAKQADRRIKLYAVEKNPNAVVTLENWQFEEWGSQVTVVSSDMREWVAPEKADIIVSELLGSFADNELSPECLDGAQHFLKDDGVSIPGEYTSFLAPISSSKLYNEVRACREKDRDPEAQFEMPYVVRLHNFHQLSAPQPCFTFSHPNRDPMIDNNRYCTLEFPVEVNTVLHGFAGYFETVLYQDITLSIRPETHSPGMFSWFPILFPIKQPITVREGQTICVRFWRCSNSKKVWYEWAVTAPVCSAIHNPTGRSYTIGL
Sequence of UniProt O14744 (Q9BQA1 whole entry partner): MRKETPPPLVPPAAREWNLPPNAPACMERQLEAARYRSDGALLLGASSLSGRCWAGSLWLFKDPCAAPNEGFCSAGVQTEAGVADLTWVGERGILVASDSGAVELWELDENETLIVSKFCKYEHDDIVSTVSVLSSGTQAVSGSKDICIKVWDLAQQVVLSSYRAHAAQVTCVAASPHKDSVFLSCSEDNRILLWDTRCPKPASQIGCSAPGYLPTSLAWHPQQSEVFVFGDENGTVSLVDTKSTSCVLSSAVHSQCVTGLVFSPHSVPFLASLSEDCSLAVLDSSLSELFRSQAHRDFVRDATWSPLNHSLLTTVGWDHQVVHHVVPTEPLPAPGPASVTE

For `CC(=O)N1CCN(C(=O)c2cc(C#N)cnc2CN2CCN(C[C@H](O)CN3CCc4ccccc4C3)C2=O)CC1` [Example 103], the pIC50 is 5.26.
With `O=C(Nc1ccc(CN2CCN(C[C@H](O)CN3CCc4ccccc4C3)C2=O)nc1)C1CCC1` [Example 106, (R)-N-(6-((3-(3-(3,4-dihydroisoquinolin-2(1H)-yl)-2-hydroxypropyl)-2-oxoimidazolidin-1-yl)methyl)pyridin-3-yl)cyclobutanecarboxamide], the negative-log IC50 (pIC50) was 7.15.
